Measurements published in the supplement of paper PMC8728848.
Some of the results follow.

Columns and labels:
Assay in all cases: glycan array binding signal (z-score within array); higher = stronger binding
Details in all cases: glycan notation: IUPAC condensed, linker removed
[1] = target: Gal(b1-4)GlcNAc(b1-3)Gal(b1-4)[Fuc(a1-3)]GlcNAc(b1-3)Gal(b1-4)[Fuc(a1-3)]GlcNAc
In short: (§1)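 Arrays were curated from the Consortium for Functional Glycomics database, 3228 in total, and kept only where the protein sequence was available. Binding is expressed as a within-array Z-score. This score was averaged across arrays of the same protein sequence at different concentrations or buffers and across linkers, and negative values can be read as non-binding.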

[2] = target: Gal(b1-4)GlcNAc(b1-3)GalNAc
In short: as §1

[3] = target: Gal(b1-4)GlcNAc(b1-3)[Gal(b1-4)GlcNAc(b1-6)]Gal(b1-4)GlcNAc
In short: as §1

[4] = target: Gal(b1-4)GlcNAc(b1-3)[Gal(b1-4)GlcNAc(b1-6)]GalNAc
In short: as §1

[5] = target: Gal(b1-4)GlcNAc(b1-3)[GlcNAc(b1-6)]Gal(b1-4)GlcNAc
In short: as §1

[6] = target: Gal(b1-4)GlcNAc(b1-6)Gal(b1-4)GlcNAc
In short: as §1

[7] = target: Gal(b1-4)GlcNAc(b1-6)GalNAc
In short: as §1

[8] = target: Gal(b1-4)GlcNAc(b1-6)[Gal(b1-3)]GalNAc
In short: as §1

[9] = target: Gal3S(b1-3)GalNAc
In short: as §1

[10] = target: Gal3S(b1-3)GlcNAc
In short: as §1

[11] = target: Gal3S(b1-3)[Fuc(a1-4)]GlcNAc
In short: as §1

[12] = target: Gal3S(b1-4)Glc
In short: as §1

[13] = target: Gal3S(b1-4)Glc6S
In short: as §1

[14] = target: Gal3S(b1-4)GlcNAc
In short: as §1

[15] = target: Gal3S(b1-4)GlcNAc6S
In short: as §1

[16] = target: Gal3S(b1-4)[Fuc(a1-3)]Glc
In short: as §1

[17] = target: Gal3S(b1-4)[Fuc(a1-3)]Glc6S
In short: as §1

[18] = target: Gal3S4S(b1-4)GlcNAc
In short: as §1

[19] = target: Gal3S6S(b1-4)GlcNAc
In short: as §1

[20] = target: Gal3S6S(b1-4)GlcNAc6S
In short: as §1

[21] = target: Gal4S(b1-4)GlcNAc
In short: as §1

[22] = target: Gal4S6S(b1-4)GlcNAc
In short: as §1

[23] = target: Gal6S(b1-4)Glc
In short: as §1

[24] = target: Gal6S(b1-4)Glc6S
In short: as §1

[25] = target: Gal6S(b1-4)GlcNAc
In short: as §1

[26] = target: Gal6S(b1-4)GlcNAc6S
In short: as §1

[27] = target: GalNAc(a1-3)Gal
In short: as §1

[28] = target: GalNAc(a1-3)GalNAc
In short: as §1

[29] = target: GalNAc(a1-3)GalNAc(a1-3)Gal(a1-4)Gal(b1-4)GlcNAc
In short: as §1

[30] = target: GalNAc(b1-3)Gal
In short: as §1

[31] = target: GalNAc(b1-3)Gal(a1-4)Gal(b1-4)GlcNAc
In short: as §1

[32] = target: GalNAc(b1-3)Gal(a1-4)Gal(b1-4)GlcNAc(b1-3)Gal(b1-4)Glc
In short: as §1

[33] = target: GalNAc(b1-3)Gal(a1-6)Gal(b1-4)Glc
In short: as §1

[34] = target: GalNAc(b1-3)GalNAc
In short: as §1

[35] = target: GalNAc(b1-4)GlcNAc
In short: as §1

[36] = target: GalNAc(b1-4)GlcNAc(b1-2)Man(a1-3)[GalNAc(b1-4)GlcNAc(b1-2)Man(a1-6)]Man(b1-4)GlcNAc(b1-4)GlcNAc
In short: as §1

[37] = target: Glc(a1-4)Glc
In short: as §1

[38] = target: Glc(a1-6)Glc(a1-6)Glc
In short: as §1

[39] = target: Glc(b1-4)Glc
In short: as §1

[40] = target: Glc(b1-6)Glc
In short: as §1

[41] = target: GlcA(b1-3)Gal
In short: as §1

[42] = target: GlcA(b1-3)GlcNAc
In short: as §1

[43] = target: GlcA(b1-6)Gal
In short: as §1

[44] = target: GlcNAc(a1-3)Gal(b1-4)GlcNAc
In short: as §1

[45] = target: GlcNAc(a1-4)Gal(b1-3)GlcNAc
In short: as §1

B1: Ecp6 (Cladosporium fulvum), B3VBK9 (protein)
chain: MQSMILFAAALMGAAVNGFVLPRTDDPDCETKATDCGSTSNIKYTVVKGDTLTSIAKKFKSGICNIVSVNKLANPNLIELGATLIIPENCSNPDNKSCVSTPAEPTETCVPGLPGSYTIVSGDTLTNISQDFNITLDSLIAANTQIENPDAIDVGQIITVPVCPSSQCEAVGTYNIVAGDLFVDLAATYHTTIGQIKALNNNVNPSKLKVGQQIILPQDCKNVTTAVA
B1 was tested. Which “glycan array binding signal (z-score)” value [1] did it give?
Its value is -0.036.

And the “glycan array binding signal (z-score)” value [2]?
Its value is -0.084.

And the “glycan array binding signal (z-score)” value [3]?
The value was -0.106.

What about the “glycan array binding signal (z-score)” value [4] of the same binder?
Its value is -0.091.

And the “glycan array binding signal (z-score)” value [5]?
Its value is -0.096.

And the “glycan array binding signal (z-score)” value [6]?
Its value is -0.106.

And the “glycan array binding signal (z-score)” value [7]?
The value was -0.094.

What about the “glycan array binding signal (z-score)” value [8] of the same binder?
Its value is -0.077.

And the “glycan array binding signal (z-score)” value [9]?
Its value is -0.091.

And the “glycan array binding signal (z-score)” value [10]?
The value was -0.109.

What about the “glycan array binding signal (z-score)” value [11] of the same binder?
The value was -0.074.

And the “glycan array binding signal (z-score)” value [12]?
The value was -0.098.

What about the “glycan array binding signal (z-score)” value [13] of the same binder?
The value was -0.08.

And the “glycan array binding signal (z-score)” value [14]?
Its value is -0.073.

What about the “glycan array binding signal (z-score)” value [15] of the same binder?
Its value is -0.093.

And the “glycan array binding signal (z-score)” value [16]?
The value was -0.084.

And the “glycan array binding signal (z-score)” value [17]?
The value was -0.084.

What about the “glycan array binding signal (z-score)” value [18] of the same binder?
The value was -0.078.

What about the “glycan array binding signal (z-score)” value [19] of the same binder?
Its value is -0.083.

And the “glycan array binding signal (z-score)” value [20]?
Its value is -0.088.

And the “glycan array binding signal (z-score)” value [21]?
The value was -0.101.

What about the “glycan array binding signal (z-score)” value [22] of the same binder?
The value was -0.085.

What about the “glycan array binding signal (z-score)” value [23] of the same binder?
Its value is -0.073.

What about the “glycan array binding signal (z-score)” value [24] of the same binder?
Its value is -0.092.

What about the “glycan array binding signal (z-score)” value [25] of the same binder?
Its value is -0.098.

What about the “glycan array binding signal (z-score)” value [26] of the same binder?
The value was -0.077.

And the “glycan array binding signal (z-score)” value [27]?
Its value is -0.096.

What about the “glycan array binding signal (z-score)” value [28] of the same binder?
Its value is -0.076.

What about the “glycan array binding signal (z-score)” value [29] of the same binder?
The value was -0.091.

What about the “glycan array binding signal (z-score)” value [30] of the same binder?
The value was -0.116.

And the “glycan array binding signal (z-score)” value [31]?
The value was -0.1.

What about the “glycan array binding signal (z-score)” value [32] of the same binder?
Its value is -0.099.

And the “glycan array binding signal (z-score)” value [33]?
The value was -0.106.

And the “glycan array binding signal (z-score)” value [34]?
Its value is -0.095.

And the “glycan array binding signal (z-score)” value [35]?
The value was -0.082.

What about the “glycan array binding signal (z-score)” value [36] of the same binder?
The value was -0.08.

And the “glycan array binding signal (z-score)” value [37]?
Its value is -0.101.

What about the “glycan array binding signal (z-score)” value [38] of the same binder?
Its value is -0.072.

What about the “glycan array binding signal (z-score)” value [39] of the same binder?
The value was -0.1.

And the “glycan array binding signal (z-score)” value [40]?
The value was -0.095.

What about the “glycan array binding signal (z-score)” value [41] of the same binder?
Its value is -0.089.

What about the “glycan array binding signal (z-score)” value [42] of the same binder?
Its value is -0.106.

What about the “glycan array binding signal (z-score)” value [43] of the same binder?
Its value is -0.078.

And the “glycan array binding signal (z-score)” value [44]?
The value was -0.073.

What about the “glycan array binding signal (z-score)” value [45] of the same binder?
Its value is -0.101.
